31 sequences from publication PMC12820563, “FoxP3 forms a head-to-head dimer in vivo and stabilizes its multimerization on adjacent microsatellites” can be followed below.

The other results are listed elsewhere or left out.

The target of the assay is T1, MBP-FoxP1dN (Mus musculus, UniProt P58462 326-579).
T1 sequence: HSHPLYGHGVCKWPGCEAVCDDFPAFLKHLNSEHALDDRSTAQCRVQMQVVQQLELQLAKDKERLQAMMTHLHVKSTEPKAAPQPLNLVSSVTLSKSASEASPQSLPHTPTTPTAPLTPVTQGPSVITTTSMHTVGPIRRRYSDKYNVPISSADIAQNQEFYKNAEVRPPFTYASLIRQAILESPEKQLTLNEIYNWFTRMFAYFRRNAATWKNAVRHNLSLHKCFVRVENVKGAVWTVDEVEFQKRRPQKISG
Nature of the assay: PD-seq (MBP pull-down with sequencing); 20 mM Tris-HCl pH 7.5, 100 mM NaCl, 1.5 mM MgCl2, 0.4 uM protein, 0.1 uM dsDNA library, 30 min, room temperature, amylose pull-down; high values mean tight binding. The conditions noted are these: protein: recombinant; tags: His6-MBP; chain copies: 2; dsDNA, one strand shown. The gist of the method: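 A fragment of mouse FoxP3 or FoxP1 without its N-terminus, carrying a His6-MBP tag and produced in E. coli, was combined at 0.4 µM with a 0.1 µM degenerate double-stranded DNA library filled in with Klenow. The mixture sat for 30 min at room temperature in Tris pH 7.5 buffer containing NaCl and MgCl2. Protein–DNA complexes were captured on amylose resin, washed three times, and the DNA was freed with proteinase K, barcoded by PCR and sequenced on Illumina. Binding is expressed as reads-per-million enrichment of pull-down over input, with replicates pooled.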
With “GATGATTGTTCTCCCAGCTGATGAATTCCCTGCCTCGAGTAAACAAATTTTCCTAATCTTTCTGTTCAAGCGCCATCTAC”, the binding signal was 0.856 RPM ratio (pull-down/input). In the case of “GATGATTGTTCTCCCAGCTGATGAATTACAGATATCGAGTAAACAAATTTTCCTAATCTTTCTGTTCAAGCGCCATCTAC” it was 1.15 RPM ratio (pull-down/input); in that of “GATGATTGTTCTCCCAGCTGATGAATTGCACGCCTCGAGTAAACAAATTTTCCTAATCTTTCTGTTCAAGCGCCATCTAC”, 1.17 RPM ratio (pull-down/input); in that of “GATGATTGTTCTCCCAGCTGATGAATTCCCTAACTCGAGTAAACAAATTTTCCTAATCTTTCTGTTCAAGCGCCATCTAC”, 0.857 RPM ratio (pull-down/input). In the case of “GATGATTGTTCTCCCAGCTGATGAATTAGTGGTATCGAGTAAACAAATTTTCCTAATCTTTCTGTTCAAGCGCCATCTAC” it was 1.06 RPM ratio (pull-down/input); in that of “GATGATTGTTCTCCCAGCTGATGAATTGCATGAATCGAGTAAACAAATTTTCCTAATCTTTCTGTTCAAGCGCCATCTAC”, 1.15 RPM ratio (pull-down/input). In the case of “GATGATTGTTCTCCCAGCTGATGAATTGACGTGCTCGAGTAAACAAATTTTCCTAATCTTTCTGTTCAAGCGCCATCTAC” it was 1.12 RPM ratio (pull-down/input). Consider “GATGATTGTTCTCCCAGCTGATGAATTCCCGATTTCGAGTAAACAAATTTTCCTAATCTTTCTGTTCAAGCGCCATCTAC”, for which the binding signal was 0.844 RPM ratio (pull-down/input). In the case of “GATGATTGTTCTCCCAGCTGATGAATTGATCATTTCGAGTAAACAAATTTTCCTAATCTTTCTGTTCAAGCGCCATCTAC” it was 1.08 RPM ratio (pull-down/input); in that of “GATGATTGTTCTCCCAGCTGATGAATTACTCCTTTCGAGTAAACAAATTTTCCTAATCTTTCTGTTCAAGCGCCATCTAC”, 1.15 RPM ratio (pull-down/input). In the case of “GATGATTGTTCTCCCAGCTGATGAATTCTGCGAGTCGAGTAAACAAATTTTCCTAATCTTTCTGTTCAAGCGCCATCTAC” it was 0.898 RPM ratio (pull-down/input); in that of “GATGATTGTTCTCCCAGCTGATGAATTAGCTCGCTCGAGTAAACAAATTTTCCTAATCTTTCTGTTCAAGCGCCATCTAC”, 0.846 RPM ratio (pull-down/input); in that of “GATGATTGTTCTCCCAGCTGATGAATTGGATCAATCGAGTAAACAAATTTTCCTAATCTTTCTGTTCAAGCGCCATCTAC”, 0.959 RPM ratio (pull-down/input). In the case of “GATGATTGTTCTCCCAGCTGATGAATTTACTATTTCGAGTAAACAAATTTTCCTAATCTTTCTGTTCAAGCGCCATCTAC” it was 1.55 RPM ratio (pull-down/input); in that of “GATGATTGTTCTCCCAGCTGATGAATTTAAGTATTCGAGTAAACAAATTTTCCTAATCTTTCTGTTCAAGCGCCATCTAC”, 0.979 RPM ratio (pull-down/input); in that of “GATGATTGTTCTCCCAGCTGATGAATTCAGTTCTTCGAGTAAACAAATTTTCCTAATCTTTCTGTTCAAGCGCCATCTAC”, 0.862 RPM ratio (pull-down/input). Regarding “GATGATTGTTCTCCCAGCTGATGAATTGGTTCATTCGAGTAAACAAATTTTCCTAATCTTTCTGTTCAAGCGCCATCTAC”, the binding signal is 0.949 RPM ratio (pull-down/input). Consider “GATGATTGTTCTCCCAGCTGATGAATTAAAAATTTCGAGTAAACAAATTTTCCTAATCTTTCTGTTCAAGCGCCATCTAC”, for which the binding signal was 1.04 RPM ratio (pull-down/input). In the case of “GATGATTGTTCTCCCAGCTGATGAATTCGAGTTATCGAGTAAACAAATTTTCCTAATCTTTCTGTTCAAGCGCCATCTAC” it was 0.96 RPM ratio (pull-down/input). In the case of “GATGATTGTTCTCCCAGCTGATGAATTCTCAATCTCGAGTAAACAAATTTTCCTAATCTTTCTGTTCAAGCGCCATCTAC” it was 0.717 RPM ratio (pull-down/input); in that of “GATGATTGTTCTCCCAGCTGATGAATTTCCTGTATCGAGTAAACAAATTTTCCTAATCTTTCTGTTCAAGCGCCATCTAC”, 0.941 RPM ratio (pull-down/input). In the case of “GATGATTGTTCTCCCAGCTGATGAATTAGCGGCTTCGAGTAAACAAATTTTCCTAATCTTTCTGTTCAAGCGCCATCTAC” it was 0.855 RPM ratio (pull-down/input). As to “GATGATTGTTCTCCCAGCTGATGAATTTGCTGCCTCGAGTAAACAAATTTTCCTAATCTTTCTGTTCAAGCGCCATCTAC”, the binding signal is 0.908 RPM ratio (pull-down/input). In the case of “GATGATTGTTCTCCCAGCTGATGAATTGCGCCGTTCGAGTAAACAAATTTTCCTAATCTTTCTGTTCAAGCGCCATCTAC” it was 1.08 RPM ratio (pull-down/input). Regarding “GATGATTGTTCTCCCAGCTGATGAATTCACTGCATCGAGTAAACAAATTTTCCTAATCTTTCTGTTCAAGCGCCATCTAC”, the binding signal is 1.12 RPM ratio (pull-down/input). As for “GATGATTGTTCTCCCAGCTGATGAATTGCATTACTCGAGTAAACAAATTTTCCTAATCTTTCTGTTCAAGCGCCATCTAC”, the binding signal is 1.26 RPM ratio (pull-down/input). In the case of “GATGATTGTTCTCCCAGCTGATGAATTTAACCCTTCGAGTAAACAAATTTTCCTAATCTTTCTGTTCAAGCGCCATCTAC” it was 0.882 RPM ratio (pull-down/input); in that of “GATGATTGTTCTCCCAGCTGATGAATTGTAGAAATCGAGTAAACAAATTTTCCTAATCTTTCTGTTCAAGCGCCATCTAC”, 1.09 RPM ratio (pull-down/input). In the case of “GATGATTGTTCTCCCAGCTGATGAATTACTGCGCTCGAGTAAACAAATTTTCCTAATCTTTCTGTTCAAGCGCCATCTAC” it was 0.898 RPM ratio (pull-down/input); in that of “GATGATTGTTCTCCCAGCTGATGAATTTGCACACTCGAGTAAACAAATTTTCCTAATCTTTCTGTTCAAGCGCCATCTAC”, 0.974 RPM ratio (pull-down/input); in that of “GATGATTGTTCTCCCAGCTGATGAATTGTTATTATCGAGTAAACAAATTTTCCTAATCTTTCTGTTCAAGCGCCATCTAC”, 3.14 RPM ratio (pull-down/input).
